# Data from the supplement of paper PMC4166925.
# ± gives the standard deviation of the averaged measurements. Whole data set: some 33,000 sequences, median “E-score (dimensionless, -0.5 to 0.5)” near -0.046, cut for the highest 2% near 0.36. The list shows a part of the results.
# System: T1, SpTbr T-box DNA-binding domain (GST fusion)
# T1 sequence: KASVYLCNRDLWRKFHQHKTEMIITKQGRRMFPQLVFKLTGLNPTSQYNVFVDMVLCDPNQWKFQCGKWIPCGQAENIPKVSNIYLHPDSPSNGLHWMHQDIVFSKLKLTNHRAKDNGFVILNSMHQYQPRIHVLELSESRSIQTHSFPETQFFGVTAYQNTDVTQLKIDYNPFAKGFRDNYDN
# Test: PBM E-score of 8-mer (E-score (dimensionless, -0.5 to 0.5)); Tbr is Tbrain of the sea star Patiria miniata (Pm) or the sea urchin Strongylocentrotus purpuratus (Sp); higher = stronger binding preference; most listed sequences are background and not binding sites
# Settings: the construct has about 5 more residues each side
# How it was run: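 Primer extension turned Universal Agilent oligonucleotide arrays double-stranded. They were incubated with 200 nM protein in PBS (pH 7.5); the protein was a GST-fused Tbr T-box DNA-binding domain expressed in BL21 E. coli at 20 °C and purified on glutathione. Every ungapped 8-mer was scored from the scanned, quantified probe intensities, and the Universal PBM Analysis Suite gave each an enrichment E-score averaged over duplicate arrays.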
row,Sequence,PBM E-score of 8-mer
1,CTAGAACC,-0.0393 ± 0.046
2,GGGCCGAA,-0.138 ± 0.0027
3,AAACTTGT,0.189 ± 0.092
4,CGATCTCA,0.163 ± 0.012
5,CCCCGAGG,-0.235 ± 0.022
6,CGGTTAGA,-0.177 ± 0.06
7,AACGCCCG,0.0512 ± 0.098
8,CATGAAGC,-0.112 ± 0.013
9,ACGTTCTG,-0.0801 ± 0.023
10,ACATTGCA,0.0438 ± 0.031
11,TATGTTGA,-0.0189 ± 0.057
12,CCAGGACA,0.0415 ± 0.071
13,GACGTCCA,-0.0714 ± 0.046
14,GATGGTCC,-0.321 ± 0.041
15,ACGCAATA,-0.0451 ± 0.032
16,GCTCGAAC,-0.0832 ± 0.0097
17,AGTCAAGG,-0.134 ± 0.031
18,ACACTTAC,0.4 ± 0.024
19,GGCTCCAC,-0.081 ± 0.098
20,GCGAGGAA,0.221 ± 0.048
21,AACAGAGG,-0.131 ± 0.024
22,ACTCACAC,0.469 ± 0.0082
23,GTCCAAAC,-0.0101 ± 0.016
24,GTACCATA,-0.259 ± 0.012
25,AGAGGTTG,0.0805 ± 0.04

row,Sequence,PBM E-score of 8-mer
1,AAATAGAC,-0.109 ± 0.071
2,CGTACGTC,-0.0758 ± 0.019
3,ATAAAGCG,0.109 ± 0.016
4,AGTTCGCG,0.296 ± 0.038
5,AAGCAACA,0.107 ± 0.0079
6,CAGGGTGC,0.211 ± 0.027
7,CCGTCCGC,0.00261 ± 0.12
8,GATGAGAA,-0.0183 ± 0.022
9,GGCCCCGA,-0.356 ± 0.019
10,GAACCAGA,-0.05872 ± 0.00022
11,AGATAGAG,-0.0538 ± 0.0031
12,CAAGTTCC,-0.0186 ± 0.026
13,ACGCATCA,0.163 ± 0.073
14,CAGTTGAA,0.046 ± 0.073
15,ACTGTAAC,0.124 ± 0.0017
16,AAGTAGCG,0.0931 ± 0.034
17,CGGTCAAG,-0.26 ± 0.036
18,AGTTTTAC,-0.0655 ± 0.027
19,CTTGACCA,-0.0389 ± 0.05
20,CGCGTTGC,0.2402 ± 0.0013
21,ATGGCACC,0.3573 ± 0.0028
22,CGGGTGCC,0.18 ± 0.0043
23,TGTTTGAA,0.128 ± 0.084
24,AGAATTCG,-0.111 ± 0.014
25,GGGGGTCA,0.0604 ± 0.0046

row,Sequence,PBM E-score of 8-mer
1,ACGTGGTG,0.191 ± 0.038
2,CGGCTAAA,-0.0102 ± 0.0022
3,GACGCGTC,0.316 ± 0.017
4,AAAAAGAT,-0.246 ± 0.081
5,CTCCCCGC,0.00243 ± 0.072
6,AGGAAGTA,-0.176 ± 0.044
7,AACATGCG,0.166 ± 0.015
8,CCTAACGA,-0.0256 ± 0.021
9,GTTCCGTA,-0.18 ± 0.034
10,ACTAGAAG,0.00416 ± 0.045
11,AGGATGCG,0.0581 ± 0.018
12,AAACACTA,0.0817 ± 0.032
13,GTATACCA,0.0254 ± 0.057
14,AAAAGGGA,-0.296 ± 0.049
15,CGCGTTGA,0.201 ± 0.0023
16,CCGAAGAC,-0.145 ± 0.042
17,CTCTAGCC,0.0654 ± 0.052
18,ATCCAGGC,-0.1996 ± 0.00042
19,GGAAGCCC,-0.222 ± 0.054
20,CTCGCCGC,0.206 ± 0.036
21,CGTAGAGA,-0.122 ± 0.041
22,AACCCGAG,-0.0736 ± 0.019
23,CGATATAC,-0.128 ± 0.051
24,GGTCCCTA,-0.213 ± 0.07
25,ACCGGAGA,0.0981 ± 0.047

row,Sequence,PBM E-score of 8-mer
1,GCCCTCAA,-0.204 ± 0.0095
2,CTGTCGTA,-0.052 ± 0.067
3,GTAATGAC,0.0406 ± 0.034
4,GTTTTACA,0.0296 ± 0.0089
5,CTCTATTC,-0.155 ± 0.023
6,ATCCACGC,0.128 ± 0.052
7,CACTGCGA,0.0166 ± 0.0051
8,ACGTGCTA,0.359 ± 0.0084
9,CTTCTCAA,0.0891 ± 0.045
10,AGGAGACA,-0.0352 ± 0.023
11,CTGGGTTC,-0.241 ± 0.068
12,GTAAGAGA,-0.143 ± 0.02
13,ACCTTTAT,0.0881 ± 0.012
14,GCGTACCC,-0.0518 ± 0.0098
15,CAATTCGC,0.244 ± 0.0073
16,GCATCGGC,-0.332 ± 0.039
17,GGCGGAGA,0.0127 ± 0.0063
18,GTCTAAGA,-0.0378 ± 0.089
19,GTAGGTTA,-0.184 ± 0.0098
20,TATTGCGA,0.103 ± 0.023
21,CTGGTATA,-0.203 ± 0.012
22,TCCCGCCA,0.073 ± 0.025
23,GGCTTATA,-0.269 ± 0.071
24,ACCGAGTA,-0.0637 ± 0.071
25,ATTGGGCG,0.0176 ± 0.068

row,Sequence,PBM E-score of 8-mer
1,AATCACGC,0.321 ± 0.015
2,CTATTTAC,-0.0783 ± 0.043
3,ATATATTG,-0.197 ± 0.0055
4,GAGCTGAA,-0.146 ± 0.045
5,CGTCTCAC,0.272 ± 0.016
6,AATGCAAG,-0.259 ± 0.011
7,CAATCCGC,-0.0196 ± 0.012
8,CGAGAGAC,-0.166 ± 0.051
9,GCGAGTGA,0.18 ± 0.032
10,AACATCAA,-0.0537 ± 0.037
11,TGGTAAAA,-0.0951 ± 0.025
12,ACTAAGAT,0.093 ± 0.053
13,CGTAGGTC,-0.24 ± 0.02
14,ATAGAGGG,-0.184 ± 0.031
15,ACTTCTCC,-0.0458 ± 0.018
16,ATACCTAT,-0.0845 ± 0.068
17,CAAGCCTG,-0.0299 ± 0.016
18,ATGTTGCC,-0.0112 ± 0.089
19,GCGTTCAC,0.239 ± 0.011
20,ACTACAGT,-0.139 ± 0.0078
21,TCATGTAA,-0.102 ± 0.042
22,AGCGGCCC,-0.273 ± 0.1
23,AAATGCGT,0.0194 ± 0.0015
24,GAGTCTGA,-0.228 ± 0.03
25,ATTTGTAC,-0.0828 ± 0.0039

row,Sequence,PBM E-score of 8-mer
1,CATAGACA,-0.149 ± 0.015
2,AAGATTAA,-0.0784 ± 0.0081
3,GAAACCTA,0.0218 ± 0.0061
4,GACCCTTA,-0.0355 ± 0.033
5,CATTCCTC,-0.0883 ± 0.013
6,AAGCTACA,0.00216 ± 0.035
7,ATGCTTAA,-0.224 ± 0.021
8,CATCACGC,0.263 ± 0.021
9,ATTAGGTC,-0.0878 ± 0.021
10,AGCACTTA,0.242 ± 0.026
11,GTTGTTCA,0.0496 ± 0.026
12,TAGTACTA,-0.189 ± 0.057
13,GAATTAAA,-0.0537 ± 0.037
14,ACCGCCGG,0.0158 ± 0.017
15,CTACGTTA,-0.186 ± 0.047
16,ATTATTAG,-0.0717 ± 0.017
17,GGTCTCAA,-0.0536 ± 0.098
18,AGCATGCT,-0.0183 ± 0.016
19,CGACACAG,0.192 ± 0.079
20,CCCAACAA,0.13 ± 0.0093
21,CTAGATCC,-0.352 ± 0.023
22,CCTAAACC,-0.0694 ± 0.039
23,GCCTGTGA,0.187 ± 0.0033
24,GTCGTCAC,0.337 ± 0.025
25,ACGGTGAA,-0.167 ± 0.038

row,Sequence,PBM E-score of 8-mer
1,ATTTTGGG,-0.152 ± 0.032
2,CAAACTTA,0.0728 ± 0.018
3,CACATACA,0.253 ± 0.0045
4,AACTACCA,-0.0851 ± 0.02
5,GGTCGTCA,0.129 ± 0.061
6,CACCACGG,0.133 ± 0.0043
7,GCTCTGCA,-0.124 ± 0.035
8,AAGCTTAA,-0.247 ± 0.042
9,CTAAACCC,-0.144 ± 0.058
10,TTCTCAAA,-0.122 ± 0.02
11,CCAGTTTC,-0.00356 ± 0.037
12,CACCCAGG,0.224 ± 0.045
13,CCACGGAG,-0.172 ± 0.095
14,AAGCTAAG,-0.185 ± 0.018
15,TCCAAGAA,-0.0873 ± 0.017
16,CAGGGTCC,0.0172 ± 0.013
17,CAGATTAC,-0.0601 ± 0.0021
18,ACGATGTA,-0.136 ± 0.027
19,CGATGATA,-0.0245 ± 0.038
20,CGAGCGTA,-0.285 ± 0.044
21,CATAGCTC,-0.275 ± 0.021
22,ACAGTGGA,-0.0414 ± 0.025
23,CTTAATAC,0.0605 ± 0.042
24,ACCTCTCC,-0.0172 ± 0.03
25,AAAGATCG,-0.00473 ± 0.012

row,Sequence,PBM E-score of 8-mer
1,CGTCTCAG,-0.173 ± 0.00035
2,GAAGGGAA,0.0014 ± 0.008
3,AACTCGAG,-0.0237 ± 0.054
4,GAATTTGA,-0.2 ± 0.13
5,TAAGACTA,-0.189 ± 0.048
6,GAGAATCC,0.0965 ± 0.055
7,CAGGGAAG,-0.2 ± 0.0062
8,CGGAGAAC,-0.0862 ± 0.029
9,TACGCTCA,-0.0725 ± 0.047
10,GCGTCCAA,-0.103 ± 0.0019
11,GTGATAAA,0.305 ± 0.051
12,TGGCGAAA,0.0423 ± 0.038
13,TAGCACAA,0.117 ± 0.028
14,CTTCAATA,-0.187 ± 0.046
15,AACAGTGA,0.0784 ± 0.029
16,GTACAGTA,0.173 ± 0.036
17,AGTCACAG,0.0674 ± 0.028
18,CCCCCGCA,-0.128 ± 0.051
19,CAGAAAGG,-0.2263 ± 0.0013
20,TTACGCAA,0.00583 ± 0.056
21,CTGTGTTC,0.0692 ± 0.0081
22,AACGCATA,0.0089 ± 0.0093
23,CAATACCC,-0.159 ± 0.02
24,TCCGAAGA,-0.307 ± 0.0031
25,CGATGGCA,0.165 ± 0.0061

row,Sequence,PBM E-score of 8-mer
1,CGCAATAG,-0.0156 ± 0.11
2,ACCGACGG,-0.13 ± 0.045
3,AATTGTAA,-0.124 ± 0.12
4,ACAGGGAA,-0.273 ± 0.018
5,AGCCCAGC,-0.267 ± 0.0077
6,AGCTAATC,-0.0328 ± 0.0048
7,TAGCCAGA,-0.326 ± 0.06
8,GTCCACGA,-0.0408 ± 0.034
9,GGAGCTAC,-0.155 ± 0.037
10,AGAGTCTG,-0.33 ± 0.089
11,ACGCTCGC,0.19 ± 0.084
12,TGTTACAA,0.247 ± 0.046
13,GTACTCGA,-0.00204 ± 0.0087
14,GAGATCTA,-0.0537 ± 0.0086
15,CATATGAA,-0.148 ± 0.044
16,GCCCACCA,-0.178 ± 0.058
17,CCCAAGCG,-0.0978 ± 0.034
18,AACTTGTA,-0.0543 ± 0.038
19,ATTAACAC,0.45 ± 0.015
